# Results reported in PubChem BioAssay AID624296 (National Center for Advancing Translational Sciences (NCATS), 2012).
# Several values for one entry are separate records, joined by “and”; a condition that tells them apart may be missing. Equal entries are not always repeated. In all, about 350,000 compounds went through this assay and about 9,900 (2.8%) were called active. The inconclusive results got no clear call from the source; some entries with a clear call stand among them for comparison. Calls come from the whole dose curve; as a rule, active = well fitted activation curve with a large enough effect; inconclusive = small, poorly fitted or top-dose-only effect; inactive = no such curve, though single readings can be large or run the other way. Potencies beside an inconclusive call are fits to weak or partial responses and may not hold up.
# Assay: A quantitative high throughput screen for small molecules that induce DNA re-replication in MCF 10a normal breast cells. Note: nearly all actives have a fitted effect of over 50% in size.
# Settings: MCF 10A DNA re-replication, Hoechst nuclear intensity, 48 h; series mostly up to 46.1 µM
# Potency is the fitted concentration of half-maximal effect; tags give direction and shape of the fitted curve.
row,SMILES,Potency
1,Cc1cc(NS(=O)(=O)c2ccc(NC(=O)c3c(F)c(F)c(F)c(F)c3F)cc2)nc(C)n1,"inconclusive: 32.6 µM [activator, partial curve, poor fit]"
2,Cc1nc(-c2ccccc2)sc1C(=O)CSc1ccc(Cl)cc1,"inconclusive: 0.731 µM [activator, full curve]"
3,CN(Cc1c(F)cccc1Cl)C(=O)c1ccc2ccccc2n1,inactive
4,Clc1ccccc1-c1cc(COc2ccc3ccccc3c2)no1,"inconclusive: 11.2 µM [activator, single point]"
5,COc1ccccc1-c1sc2cc3c(cc2c1C#CCO)OCO3,active: 20.6 µM
6,CCCCOc1[nH]c2nc(-c3ccco3)n(Cc3ccco3)c(=N)c2c1C#N,"inconclusive: 20.6 µM [activator, single point]"
7,CSc1ccc(C2=CC(=O)C[C@H](c3ccc(Cl)cc3)C2)cc1,inactive
8,CCN(CC)S(=O)(=O)c1cccc(S(=O)(=O)c2cccc(S(=O)(=O)N(CC)CC)c2)c1,"inconclusive: 13 µM [activator, partial curve, poor fit]"
9,CCOC(=O)C1=C(c2ccccc2)N=C2SCC(=O)N2C1c1ccc(OC)c(OC)c1 (stereo not given),"inconclusive: 0.0517 µM [activator, full curve, poor fit]"
10,CCn1c2ccccc2c2cc(CN3CCN(C(=O)c4ccco4)CC3)ccc21,"inconclusive: 20.6 µM [activator, single point]"
11,CN(C)C(CNC(=O)CSc1nc2sc3c(c2c(=O)n1C)CCCC3)c1ccccc1 (stereo not given),"inconclusive: 25.9 µM [activator, single point]"
12,Oc1ccc(NCc2cccc(OCc3ccccc3)c2)cc1,"inconclusive: 29.1 µM [activator, single point]"
13,S=c1c2c(nc3nc[nH]n13)CCC2,inactive
14,Cc1nc2c(-c3ccc(Cl)cc3)c(C)[nH]n2c(=O)c1Cc1ccccc1,"inconclusive: 0.651 µM [activator, full curve, poor fit]"
15,O=C(N/N=C/c1ccncc1)c1cc2ccccc2o1,"inconclusive: 20.6 µM [activator, single point]"
16,Cc1ccc(/C=C/C2=NN(Cc3ccccc3)C(=O)CC2)cc1,"inconclusive: 20.6 µM [activator, partial curve, poor fit]"
17,CCOC(=O)CSC1=C(C#N)C(c2ccc3c(c2)OCO3)CC(=O)N1 (stereo not given),"inconclusive: 16.4 µM [activator, partial curve]"
18,COc1cc(C(=O)Nc2nc(-c3cccs3)cs2)cc(OC)c1OC,"inconclusive: 6.51 µM [activator, single point]"
19,CCOc1ccc(C(=O)Nc2ccc(S(=O)(=O)N3C[C@@H]4C[C@@H](C3)c3cccc(=O)n3C4)cc2)cc1,"inconclusive: 5.17 µM [activator, partial curve, poor fit]"
20,O=C(Nc1nncs1)c1cccc(S(=O)(=O)N2CCc3ccccc32)c1,"inconclusive: 23.1 µM [activator, single point]"
21,CCCCOc1ccc(C(=O)OCC(=O)N2CCOCC2)cc1,inactive
22,N#C/C(N=Nc1ccccc1O)=N\Nc1ccccc1O,"inconclusive: 18.4 µM [activator, partial curve, poor fit]"

row,SMILES,Potency
1,CC(/C=C/C(=O)c1ccc(C)cc1)=C\c1ccccc1,"inconclusive: 23.1 µM [activator, partial curve, poor fit]"
2,C=C1CC[C@@H]2[C@](C)(CO)[C@H](O)CC[C@@]2(C)[C@@H]1/C=C/C1=CCOC1=O,inactive
3,Cc1nc2c(-c3ccc(F)cc3)cnn2c(N)c1-c1ccccc1,"inconclusive: 25.9 µM [activator, single point]"
4,Cc1nn(C)cc1C(C(=O)NC1CCCCC1)N(C(=O)Cc1cccs1)c1ccc(C(C)C)cc1 (stereo not given),"inconclusive: 23.1 µM [activator, partial curve, poor fit]"
5,Cc1ccc(F)c(NC(=O)c2ccc(Cn3cc(Cl)cn3)cc2)c1,"inconclusive: 18.4 µM [activator, partial curve, poor fit]"
6,C=C(C)C1CC=C(CN2CC(C)OC(C)C2)CC1 (stereo not given),inactive
7,CC1=C(CC(=O)c2ccc(Cl)cc2)C(=O)c2ccccc2C1=O,active: 4.11 µM
8,COc1ccc(C(C)=O)cc1CSc1nc2ccccc2c(=O)n1-c1cccc(C)c1,"inconclusive: 20.6 µM [activator, partial curve, poor fit]"
9,Cc1cc(N=Cc2c(O)ccc3ccccc23)no1,inactive
10,Cn1c(N)c(C(=O)COC(=O)c2ccc(Cl)c(S(=O)(=O)N3CCCCC3)c2)c(=O)n(C)c1=O,"inconclusive: 18.4 µM [activator, partial curve, poor fit]"
11,Cn1c(SCC(=O)N2c3ccccc3CCc3ccccc32)nnc1-c1cc2ccccc2cc1O,"inconclusive: 2.91 µM [activator, full curve, poor fit]"
12,Cn1nnnc1SCCNS(=O)(=O)c1ccccc1,inactive
13,Clc1ccc(N2CCOCC2)nn1,"inconclusive: 29.1 µM [activator, single point]"
14,O=c1cc2c(n[nH]1)-c1ccccc1CC2,inactive
15,COCCNC(=O)c1cnn2c(C(F)F)cc(-c3ccccc3)nc12,"inconclusive: 23.1 µM [activator, single point]"
16,Cc1cc(CCNC=O)c(C)c2c1sc1ccccc12,"inconclusive: 20.6 µM [activator, single point]"
17,CCOC(=O)C1CCN(S(=O)(=O)c2cc(C(=O)N3CCCCC3)ccc2OC)CC1,inactive
18,COc1cc(/C=C2\SC(=O)N(c3ccc(O)cc3)C2=O)cc(OC)c1OC,"inconclusive: 29.1 µM [activator, single point]"
19,COc1ccccc1NS(=O)(=O)c1cc(NC(=O)c2cc(F)c(F)c(F)c2F)ccc1N1CCOCC1,"inconclusive: 16.4 µM [activator, single point]"
20,CC(C)Oc1c(Br)cc(Br)cc1/C=N/NC(N)=S,"inconclusive: 0.206 µM [activator, full curve, poor fit]"
21,COc1cccc(OC)c1C(=O)NC(=O)Nc1c(F)cc(F)cc1F,"inconclusive: 7.31 µM [activator, partial curve]"
22,O=C(CSc1ccccn1)Nc1nc2c(ccc3ccccc32)s1,"inconclusive: 20.6 µM [activator, partial curve]"

row,SMILES,Potency
1,O=C(CSc1nc2ccccc2c(=O)n1NC(=O)c1ccccc1)c1ccc(Cl)cc1,"inconclusive: 29.1 µM [activator, single point]"
2,CC1(C)NC(C)(C)c2nonc2/C1=N\O,inactive
3,COc1cccc(NC(=O)CN(C)C(=O)c2ccccc2-c2nc3ccccc3s2)c1,"inconclusive: 10.3 µM [activator, partial curve, poor fit]"
4,Cc1cccc(C)c1NC(=O)CCCn1nc(C)c2c(C)n(-c3ccccc3)nc2c1=O,"inconclusive: 6.51 µM [activator, single point]"
5,NC(=S)N/N=C/c1ccc(C23CC4CC(CC(C4)C2)C3)cc1,"inconclusive: 6.51 µM [activator, partial curve, poor fit]"
6,CCCCCCCCCCCCCCCC[N+](C)(C)CCN(Cc1ccc(OC)cc1)c1ncccn1,"inconclusive: 8.05 µM [activator, partial curve, poor fit] and inconclusive: 25.9 µM [activator, single point]"
7,CC(C)(C)n1nnnc1C(c1cccs1)N(Cc1cccnc1)Cc1ccccc1Cl (stereo not given),"inconclusive: 20.6 µM [activator, partial curve, poor fit]"
8,N#CC1=C(N)Oc2cc(O)ccc2C1c1ccccc1 (stereo not given),"inconclusive: 23.1 µM [activator, partial curve, poor fit]"
9,O=C(COc1ccc(-n2cnnn2)cc1)Nc1cccc(Cl)c1Cl,inactive
10,O=C(NCCN1CCCOC1=O)C(=O)NCCN1CCCOC1=O,"inconclusive: 2.91 µM [activator, full curve, poor fit]"
11,CCSc1nsc(NC(=O)Nc2ccc(F)cc2F)n1,"inconclusive: 23.1 µM [activator, partial curve, poor fit]"
12,CCCCOc1ccc(C(=O)Oc2cccnc2)cc1,"inconclusive: 7.31 µM [activator, single point]"
13,CCOc1ccc(-c2cc(C(=O)NCCCN3CCOCC3)c3ccccc3n2)cc1,"inconclusive: 23.1 µM [activator, single point]"
14,CCn1c(/C=C/c2cc(Br)ccc2O)nc2ccccc2c1=O,active: 16.4 µM
15,CC(=O)N1N=C(c2ccccc2)OC1c1cccnc1 (stereo not given),"inconclusive: 0.461 µM [activator, partial curve, poor fit]"
16,COC[C@@H]1NS(=O)(=O)c2ccc(Br)cc2O[C@H]1c1ccccc1,inactive
17,CC(=O)Nc1cc(C(=O)N2CCc3ccccc3C2)ccc1Sc1ccc(F)cc1,"inconclusive: 0.731 µM [activator, full curve, poor fit]"
18,CSc1ccccc1OCc1cc(C(=O)N2CCc3c(Cl)cccc3C2)no1,inactive
19,Cn1cnnc1SCc1ccc(C(=O)N=Nc2c(O)n(Cc3ccc(Cl)cc3)c3ccccc23)cc1,"inconclusive: 10.3 µM [activator, partial curve, poor fit]"
20,Cc1cc(C)nc(Nc2n[nH]c(-c3ccccc3N)n2)n1,"inconclusive: 16.4 µM [activator, single point]"
21,CC(C)(C)c1nc(N2CCN(C(=O)c3ccco3)CC2)c2nnn(Cc3ccccc3)c2n1,active: 8.2 µM
